This is one part of the list.

For experiment [1], the system named is HSkMC (human skeletal muscle cells). Nature of the experiment: cytotoxicity call (relative viability < 0.9). The conditions noted are these: 10 µM.
Experiment [2] concerns S. aureus RN4220. Nature of the experiment: growth inhibition call (relative growth <= 0.2). The following applies: 50 µM.

With `C[C@@H]1CN([C@@H](C)CO)C(=O)c2cccc(NC(=O)Nc3ccccc3)c2O[C@H]1CN(C)Cc1ccc(C(F)(F)F)cc1`, the cytotoxicity call in experiment [1] was “inactive”. In experiment [2], the growth inhibition call is “inactive”.
With `Cc1noc(C)c1S(=O)(=O)Nc1ccc2c(c1)C(=O)N([C@H](C)CO)C[C@H](C)[C@@H](CN(C)C(=O)Nc1ccccc1)OCCCC[C@H](C)O2`, in experiment [1], the cytotoxicity call is “inactive”. In experiment [2], the growth inhibition call was “inactive”.
Take `Cc1noc(C)c1S(=O)(=O)Nc1ccc2c(c1)CC(=O)N([C@@H](C)CO)C[C@@H](C)[C@H](CN(C)Cc1ccccc1)O2`: the cytotoxicity call in experiment [1] was “inactive”. In addition, the growth inhibition call in experiment [2] is “inactive”.
On to `C[C@@H]1CN([C@@H](C)CO)C(=O)c2c(c3ccccc3n2C)-c2ccccc2CO[C@@H]1CN(C)Cc1ccc2c(c1)OCO2`, for which the cytotoxicity call in experiment [1] is “inactive”. The growth inhibition call in experiment [2] is “inactive”.
Regarding `C[C@@H]1CN([C@@H](C)CO)C(=O)c2cccc(NC(=O)c3ccncc3)c2O[C@@H]1CN(C)Cc1ccc(-c2ccccc2)cc1`, the cytotoxicity call in experiment [1] was “inactive”. Further, the growth inhibition call in experiment [2] was “inactive”.
For `Cc1ccc(S(=O)(=O)N(C)C[C@@H]2Oc3cc(C#Cc4ccccc4)ccc3S(=O)(=O)N([C@@H](C)CO)C[C@@H]2C)cc1`, the cytotoxicity call in experiment [1] is “inactive”. In addition, the growth inhibition call in experiment [2] was “inactive”.
On to `C[C@H](CO)N1C[C@H](C)[C@@H](CN(C)Cc2ccncc2)OCCCC[C@H](C)Oc2ccc(NC(=O)NC3CCCCC3)cc2C1=O`, for which, in experiment [1], the cytotoxicity call is “inactive”. Moreover, in experiment [2], the growth inhibition call was “inactive”.
Take `C[C@@H]1CN([C@@H](C)CO)C(=O)c2c(c3ccccc3n2C)-c2ccccc2CO[C@@H]1CN(C)C(=O)[C@H](C)c1ccccc1`: the cytotoxicity call in experiment [1] was “inactive”. Besides, the growth inhibition call in experiment [2] is “inactive”.
For `COc1cccc(NC(=O)N[C@@H]2C=C[C@H](CC(=O)N3CCN(C)CC3)O[C@H]2CO)c1`, in experiment [1], the cytotoxicity call is “inactive”. Besides, in experiment [2], the growth inhibition call is “inactive”.
Consider `Oc1ccc(C=Cc2cc(O)cc(O)c2)cc1`, for which, in experiment [1], the cytotoxicity call was “inactive”. For the same compound, the growth inhibition call in experiment [2] is “inactive”.

These data come from the antibiotic and cytotoxicity screens of Wong et al. (2023).
